In the supplement of paper PMC9446081:
The whole screen tested about 39,000 compounds, of which about 220 (0.56%) showed activity. Some of the results follow.

Test system: Escherichia coli K-12 BW25113
Assay: relative growth (OD600 normalised to plate interquartile mean) (fraction); higher = less growth inhibition, active = 0.2 or less
Conditions: 50 µM; LB; incubation time: overnight (16-24 h)
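Also: static incubation at 37 °C against the wild-type strain, values averaged over two biological replicates.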

Structure (SMILES)	relative growth
C[C@@H]1CCCCO[C@H](CN(C)C(=O)CCC(F)(F)F)[C@H](C)CN([C@H](C)CO)C(=O)c2cc(NS(=O)(=O)c3ccc(Cl)cc3)ccc2O1	inactive: 1.03
CCNC(=O)[C@@H]1CCCN1C(=O)[C@H](CCCN=C(N)N)NC(=O)[C@H](CC(C)C)NC(=O)[C@@H](Cc1c[nH]c2ccccc12)NC(=O)[C@H](Cc1ccc(O)cc1)NC(=O)[C@H](CO)NC(=O)[C@H](Cc1c[nH]c2ccccc12)NC(=O)[C@H](Cc1c[nH]cn1)NC(=O)[C@@H]1CCC(=O)N1	inactive: 1.02
C[C@@H]1CCCCO[C@H](CN(C)S(=O)(=O)c2ccccc2)[C@H](C)CN([C@H](C)CO)C(=O)c2cc(NC(=O)Nc3cccc4ccccc34)ccc2O1	inactive: 1.04
CCCCC(=O)OC1(C(=O)CO)C(C)CC2C3CCC4=CC(=O)C=CC4(C)C3(F)C(O)CC21C (centres undefined)	inactive: 0.942
C[C@@H]1CN([C@@H](C)CO)S(=O)(=O)c2ccc(C#Cc3ccccc3)cc2O[C@H]1CN(C)S(=O)(=O)c1ccccc1F	inactive: 0.946
CC(C)=CC[C@H]1O[C@]2(O)[C@@H]([C@H]3CC[C@@H]4[C@@]5(C)CC[C@H](O[C@@H]6O[C@H](CO[C@@H]7O[C@@H](C)[C@H](O)[C@@H](O)[C@H]7O)[C@@H](O)[C@H](O)[C@@H]6O)C(C)(C)[C@@H]5CC[C@@]4(C)[C@]3(C)[C@H]2O)[C@@]1(C)O[C@@H]1O[C@@H](C)[C@H](O)[C@@H](O)[C@H]1O	inactive: 0.997
CO[C@H]1CN(C)C(=O)c2cc(NC(=O)Nc3ccccc3F)ccc2OC[C@@H](C)N(CCC(F)(F)F)C[C@@H]1C	inactive: 1.03
c1ccc(CNC2CCCCC2)nc1	inactive: 1.02
C[C@H]1CN([C@@H](C)CO)C(=O)c2cccc(NC(=O)c3cnccn3)c2O[C@@H]1CN(C)Cc1ccc(C(=O)O)cc1	inactive: 0.964
C[C@H](CO)N1C[C@H](C)[C@H](CN(C)S(=O)(=O)c2ccc(F)cc2)OCCCC[C@H](C)Oc2ccc(NC(=O)c3ccccc3)cc2C1=O	inactive: 1.01
CCCCCCCCCCCCCCCC(=O)C(F)(F)F	inactive: 0.965
Cc1ccc(-c2cnc3c(c2)C(=O)N([C@H](C)CO)C[C@@H](C)[C@H](CN(C)C(=O)Cc2cccnc2)O3)cc1	inactive: 1
CC(C)NC(=O)N(C)C[C@@H]1OCCCC[C@H](C)Oc2ccc(NC(=O)Nc3ccc(F)cc3)cc2C(=O)N([C@@H](C)CO)C[C@H]1C	inactive: 1.02
Cn1c(=O)c2c(ncn2CC(=O)N2CCN(c3ccccc3F)CC2)n(C)c1=O	inactive: 0.99
O=C1CCc2ccc(OCCCCN3CCN(c4cccc(Cl)c4Cl)CC3)cc2N1	inactive: 1.01
C[C@@H]1CN([C@@H](C)CO)C(=O)Cc2cc(NC(=O)C3CC3)ccc2O[C@H]1CN(C)S(=O)(=O)c1ccc(Cl)cc1	inactive: 0.967
Cc1ccc(S(=O)(=O)N(C)C[C@H]2Oc3c(NS(=O)(=O)c4cccs4)cccc3C(=O)N([C@@H](C)CO)C[C@@H]2C)cc1	inactive: 0.893
Cc1ccc(S(=O)(=O)N(C)C[C@@H]2Oc3ccc(NC(=O)Nc4ccc(C(F)(F)F)cc4)cc3C(=O)N([C@@H](C)CO)C[C@H]2C)cc1	inactive: 0.993
C[C@H]1CN([C@@H](C)CO)C(=O)c2cccc(NC(=O)C3CCOCC3)c2O[C@H]1CN(C)C(=O)NC1CCCCC1	inactive: 1.02
C[C@@H]1CN([C@@H](C)CO)C(=O)Cc2cc(NC(=O)Cn3cnnn3)ccc2O[C@H]1CN(C)Cc1ccc(-c2ccccc2)cc1	inactive: 0.984

Structure (SMILES)	relative growth
C[C@@H]1CN([C@@H](C)CO)C(=O)c2cc(NC(=O)Cn3cnnn3)ccc2O[C@H]1CN(C)Cc1ccncc1	inactive: 1.01
COc1ccc(NC(=O)N(C)C[C@@H]2Oc3ccc(NC(=O)CCN4CCOCC4)cc3C(=O)N([C@H](C)CO)C[C@H]2C)cc1	inactive: 0.993
C[C@H]1CN([C@@H](C)CO)C(=O)c2cc(NC(=O)Nc3ccccc3)ccc2O[C@H]1CN(C)C(=O)Nc1cccc2ccccc12	inactive: 0.954
N#CC1CC2CC2N1C(=O)C(N)C12CC3CC(CC(O)(C3)C1)C2 (centres undefined)	inactive: 1.06
C[C@@H]1CN([C@H](C)CO)C(=O)c2cc(NC(=O)Nc3ccc(F)cc3)ccc2O[C@@H](C)CCCCO[C@H]1CN(C)S(=O)(=O)c1cccs1	inactive: 1.1
CCC=CCC=CCC=CCC=CCC=CCCCC(=O)OCC [OMEGA-3-ACID ESTERS (EPA shown)]	inactive: 0.902
C[C@@H]1CN([C@@H](C)CO)C(=O)c2cc(C#Cc3ccccc3F)cnc2O[C@@H]1CN(C)S(=O)(=O)c1ccccc1F	inactive: 1.04
Nc1[nH]ncc1-c1cc(Cl)ccc1Oc1cc(F)c(S(=O)(=O)Nc2cscn2)cc1Cl	inactive: 0.983
O=C(C[C@H]1CC[C@H]2[C@@H](COC[C@@H](O)CN2S(=O)(=O)c2cccc(F)c2)O1)NCCCN1CCOCC1	inactive: 0.988
CNC[C@@H]1OCCCC[C@@H](C)Oc2ccc(NS(=O)(=O)c3c(C)noc3C)cc2C(=O)N([C@H](C)CO)C[C@@H]1C	inactive: 0.977
C[C@@H]1CN([C@H](C)CO)C(=O)c2cccc(NC(=O)C3CCCCC3)c2O[C@H]1CN(C)Cc1ccc(-c2ccccc2)cc1	inactive: 1.02
COc1cccc(NC(=O)N[C@H]2C=C[C@H](CC(=O)N3CCN(C)CC3)O[C@@H]2CO)c1	inactive: 1.03
C[C@H]1CN([C@@H](C)CO)C(=O)Cc2cc(NC(=O)c3ccncc3)ccc2O[C@@H]1CN(C)C(=O)NC1CCCCC1	inactive: 1.01
C[C@@H]1CCCCO[C@@H](CN(C)C(=O)Nc2cccc3ccccc23)[C@H](C)CN([C@H](C)CO)C(=O)c2cc(NC(=O)Nc3ccc(C(F)(F)F)cc3)ccc2O1	inactive: 1.01
C[C@@H]1CCCCO[C@@H](CN(C)C(=O)Cc2ccccc2)[C@H](C)CN([C@H](C)CO)C(=O)c2cc(NC(=O)c3ccccc3)ccc2O1	inactive: 0.987
COc1ccc(NC(=O)Nc2cccc3c2O[C@@H](CN(C)C(=O)Nc2cccc4ccccc24)[C@H](C)CN([C@@H](C)CO)C3=O)cc1	inactive: 1.01
O=S(=O)(NCC[C@H]1CC[C@@H](NS(=O)(=O)c2cccc(Cl)c2)[C@@H](CO)O1)c1cccc(F)c1	inactive: 0.982
C[C@@H]1CN([C@H](C)CO)C(=O)c2cc(C#Cc3ccncc3)cnc2O[C@@H]1CN(C)C(=O)c1ccccc1F	inactive: 0.978
C=C(C)C1CCC2(C)CCC3(C)C(CCC4C5(C)CCC(O)C(C)(C)C5CCC43C)C12 (centres undefined)	inactive: 1.03
C#CCN([C@H](/C=C/C1CC1)[C@@H](O)CCn1cc(CCC(=O)NO)nn1)[C@@H](Cc1ccccc1)C(=O)OC	inactive: 0.994

Structure (SMILES)	relative growth
COC[C@@H]1CNN1C(=O)OC(C)(C)C	inactive: 1.01
COCC(=O)Nc1ccc2c(c1)OC[C@@H](C)N(Cc1ccccc1F)C[C@H](C)[C@H](OC)CN(C)C2=O	inactive: 1.01
C[C@H]1CN([C@@H](C)CO)S(=O)(=O)c2ccc(C#Cc3ccc(F)cc3)cc2O[C@H]1CN(C)C(=O)CN(C)C	inactive: 0.998
C[C@@H]1CN([C@@H](C)CO)C(=O)c2cccc(NC(=O)c3ccc(-c4nccs4)cc3)c2O[C@H]1CN(C)S(=O)(=O)c1cn(C)cn1	inactive: 1.02
C[C@@H]1CN([C@@H](C)CO)C(=O)Cc2cc(NC(=O)NC3CCCCC3)ccc2O[C@@H]1CN(C)Cc1ccc(Cl)c(Cl)c1	inactive: 0.992
C[C@H](CO)N1C[C@H](C)[C@@H](CN(C)S(=O)(=O)c2ccccc2)OCCCC[C@H](C)Oc2ccc(NS(=O)(=O)c3cn(C)cn3)cc2C1=O	inactive: 0.993
FC(F)(F)CN1CCNCC1	inactive: 0.98
NC(=O)N[C@@H]1CC(=O)N(c2ccccc2)C1	inactive: 0.921
COc1ccc(NC(=O)N2C[C@H](O)COC[C@H]3O[C@@H](CC(=O)NC4Cc5ccccc5C4)CC[C@@H]32)cc1	inactive: 0.923
Cc1cc(C(=O)Nc2cccc3c2O[C@H](CN(C)S(=O)(=O)c2ccc(Cl)cc2)[C@@H](C)CN([C@@H](C)CO)C3=O)n(C)n1	inactive: 1.01
COc1cc(O)cc(OC)c1O[C@@H]1O[C@H](CO)[C@@H](O)[C@H](O)[C@H]1O	inactive: 1.01
CC(=O)NCCCC[C@@H]1NC(=O)[C@@H]2C[C@H](C(=O)NCCCCCCN(C)C)[C@H](c3ccc(O)cc3)N2C1=O	inactive: 0.963
C[C@@H]1CN([C@@H](C)CO)S(=O)(=O)c2ccc(C#Cc3ccccc3F)cc2O[C@H]1CN(C)C(=O)Cc1ccncc1	inactive: 1.02
O=C(NS(=O)(=O)c1ccccc1)c1nnc[nH]1	inactive: 0.958
Cc1noc(C)c1NC(=O)N(C)C[C@@H]1Oc2ncc(Br)cc2C(=O)N([C@H](C)CO)C[C@@H]1C	inactive: 0.931
O=C(C[C@@H]1CC[C@@H]2[C@H](COC[C@@H](O)CN2C(=O)c2cnccn2)O1)N1CCN(c2ccccc2)CC1	inactive: 0.995
O=C(CCCCCNC(=O)OCCCCO[C@@H]1C[C@H](C2CCCCC2)C=C(C(=O)N2CCOCC2)O1)NO	inactive: 0.992
COc1ccc(NC(=O)Nc2ccc3c(c2)C(=O)N([C@H](C)CO)C[C@H](C)[C@@H](CN(C)Cc2ccccc2)OCCCC[C@@H](C)O3)cc1	inactive: 1
Cc1noc(C)c1NC(=O)Nc1ccc2c(c1)C(=O)N([C@H](C)CO)C[C@H](C)[C@@H](CN(C)Cc1ccc(C(F)(F)F)cc1)O2	inactive: 1
